{
  "source": "PubChem BioAssay AID1259371",
  "about": "(The Scripps Research Institute Molecular Screening Center, 2018)",
  "target": "Microphthalmia-associated transcription factor (Homo sapiens) (UniProt O75030)",
  "sequence (O75030 whole entry, looked up)": "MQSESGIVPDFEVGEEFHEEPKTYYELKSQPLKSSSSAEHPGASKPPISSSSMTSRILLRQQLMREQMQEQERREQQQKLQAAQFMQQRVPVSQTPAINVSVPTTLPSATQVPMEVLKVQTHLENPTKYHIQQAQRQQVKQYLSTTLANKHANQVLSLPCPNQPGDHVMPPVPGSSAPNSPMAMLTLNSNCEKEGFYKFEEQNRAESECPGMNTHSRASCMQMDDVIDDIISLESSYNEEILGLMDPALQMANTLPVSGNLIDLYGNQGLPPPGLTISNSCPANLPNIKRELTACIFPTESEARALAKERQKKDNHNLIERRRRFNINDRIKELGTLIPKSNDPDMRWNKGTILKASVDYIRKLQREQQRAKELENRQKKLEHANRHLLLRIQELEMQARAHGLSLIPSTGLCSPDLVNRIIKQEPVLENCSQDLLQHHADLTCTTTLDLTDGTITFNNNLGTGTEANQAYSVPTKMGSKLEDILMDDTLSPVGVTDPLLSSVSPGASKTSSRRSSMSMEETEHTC",
  "assay": "compounds blocking human MITF signal – biochemical, AlphaScreen, dose response (AID 1259371)",
  "details": "AlphaScreen biochemical MITF assay, signal inhibition",
  "note": "Certain results were filed several times, with different values. Only these are listed. The source may hold further records. The records of an entry are repeats across runs, samples, wells, individuals or studies. Records carry a tag for their origin. Letters hold for one entry only.",
  "data": [
    {"smiles": "CN(C)[C@@H]1C(=O)C(C(=O)NCN2CCCC2)=C(O)[C@@]2(O)C(=O)C3=C(O)c4c(O)cccc4[C@@](C)(O)C3CC12", "note": "(stereo partly specified)", "values": [
      {"measurement": "IC50", "result": "40.3 nM [sample A] and 11.8 nM [sample B] and 977 nM [sample C]"}
    ]}
  ]
}
